Laboratory results reported in article PMC6317261, “Functional dissection of the developmentally restricted BEN domain chromatin boundary factor Insensitive” (Epigenetics & Chromatin, 2019).
Results are given in words; binding and its absence hold for the method and conditions named. For part of these data: Binding seen in cells or lysates may run through a third protein. Some binding calls cover weakened binding; strength is not graded here. For part of these data: Tags and fused reporters may be left off the sequences shown. Each block holds one binder with its values, some of them ahead of it.

Assays:
[1] = molecular target: T1, full-length Insv (yeast two-hybrid fusion) (Drosophila) (UniProt Q8SYK5); assay: two-hybrid; yeast strain pJ694A, vectors pGBT9 and pGAD424; growth on media without tryptophan, leucine, histidine and adenine compared after 2-3 days; repeated three times
T1 sequence: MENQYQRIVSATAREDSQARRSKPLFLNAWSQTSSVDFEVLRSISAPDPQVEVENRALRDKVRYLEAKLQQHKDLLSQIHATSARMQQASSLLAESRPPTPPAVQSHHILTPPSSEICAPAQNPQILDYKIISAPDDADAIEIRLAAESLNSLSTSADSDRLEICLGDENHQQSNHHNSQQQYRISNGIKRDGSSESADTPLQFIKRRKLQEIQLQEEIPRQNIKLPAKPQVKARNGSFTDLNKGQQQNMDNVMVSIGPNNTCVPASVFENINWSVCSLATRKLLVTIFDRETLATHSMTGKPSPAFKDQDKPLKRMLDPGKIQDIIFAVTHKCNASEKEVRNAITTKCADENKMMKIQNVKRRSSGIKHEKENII

[2] = molecular target: T2, CP190 aa 1-166 (yeast two-hybrid fusion) (Drosophila) (UniProt Q24478); assay: as above
T2 sequence: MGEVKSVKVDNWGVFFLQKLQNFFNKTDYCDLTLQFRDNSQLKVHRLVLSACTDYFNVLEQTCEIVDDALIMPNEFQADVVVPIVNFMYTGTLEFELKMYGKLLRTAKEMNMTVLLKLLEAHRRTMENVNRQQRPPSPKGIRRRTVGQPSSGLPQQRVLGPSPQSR

[3] = molecular target: T3, CP190 aa 309-470 (yeast two-hybrid fusion) (Drosophila) (UniProt Q24478); assay: as above
T3 sequence: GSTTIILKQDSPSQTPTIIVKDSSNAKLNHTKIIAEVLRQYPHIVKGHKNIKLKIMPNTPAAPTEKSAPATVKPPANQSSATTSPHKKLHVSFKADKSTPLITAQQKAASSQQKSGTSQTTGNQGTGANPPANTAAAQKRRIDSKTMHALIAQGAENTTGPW

[4] = molecular target: T4, full-length CP190 (yeast two-hybrid fusion) (Drosophila) (UniProt Q24478); assay: as above
T4 sequence: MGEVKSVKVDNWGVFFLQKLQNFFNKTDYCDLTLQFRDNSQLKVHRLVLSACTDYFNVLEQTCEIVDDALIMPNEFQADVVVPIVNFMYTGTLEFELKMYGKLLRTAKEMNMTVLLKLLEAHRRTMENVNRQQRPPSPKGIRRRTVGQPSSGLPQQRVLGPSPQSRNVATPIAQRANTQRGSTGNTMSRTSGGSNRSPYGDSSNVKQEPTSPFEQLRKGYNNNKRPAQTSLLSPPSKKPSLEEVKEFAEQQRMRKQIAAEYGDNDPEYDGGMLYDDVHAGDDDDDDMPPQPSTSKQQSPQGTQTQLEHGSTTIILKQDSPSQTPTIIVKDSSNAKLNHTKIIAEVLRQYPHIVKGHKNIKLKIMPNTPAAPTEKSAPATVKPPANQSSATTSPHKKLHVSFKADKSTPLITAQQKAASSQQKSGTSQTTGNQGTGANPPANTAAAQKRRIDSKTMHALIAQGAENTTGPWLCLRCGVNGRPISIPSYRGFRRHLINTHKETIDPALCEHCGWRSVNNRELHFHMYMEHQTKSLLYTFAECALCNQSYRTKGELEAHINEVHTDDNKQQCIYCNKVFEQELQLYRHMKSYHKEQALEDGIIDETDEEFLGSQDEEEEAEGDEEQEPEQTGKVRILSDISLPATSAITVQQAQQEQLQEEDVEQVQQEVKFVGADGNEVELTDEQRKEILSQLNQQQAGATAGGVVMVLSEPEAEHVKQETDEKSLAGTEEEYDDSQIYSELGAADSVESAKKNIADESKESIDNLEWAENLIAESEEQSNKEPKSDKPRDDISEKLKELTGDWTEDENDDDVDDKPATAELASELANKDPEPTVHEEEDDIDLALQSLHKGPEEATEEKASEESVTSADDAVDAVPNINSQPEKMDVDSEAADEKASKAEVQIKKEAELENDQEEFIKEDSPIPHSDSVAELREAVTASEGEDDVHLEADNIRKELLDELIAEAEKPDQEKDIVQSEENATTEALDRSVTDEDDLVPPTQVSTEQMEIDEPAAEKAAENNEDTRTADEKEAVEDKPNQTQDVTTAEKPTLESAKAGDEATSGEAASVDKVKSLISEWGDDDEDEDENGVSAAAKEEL

[5] = molecular target: T5, MBP-Insv[1-267] (Drosophila) (UniProt Q8SYK5); assay: pull-down; MBP pull-down on Immobilized Amylose Agarose in buffer C (20 mM HEPES-KOH pH 7.7, 150 mM NaCl, 10 mM MgCl2, 0.1 mM ZnCl2, 0.1% NP40, 10% glycerol); lysate of BL21 cells co-expressing both proteins; washed with 500 mM NaCl
T5 sequence: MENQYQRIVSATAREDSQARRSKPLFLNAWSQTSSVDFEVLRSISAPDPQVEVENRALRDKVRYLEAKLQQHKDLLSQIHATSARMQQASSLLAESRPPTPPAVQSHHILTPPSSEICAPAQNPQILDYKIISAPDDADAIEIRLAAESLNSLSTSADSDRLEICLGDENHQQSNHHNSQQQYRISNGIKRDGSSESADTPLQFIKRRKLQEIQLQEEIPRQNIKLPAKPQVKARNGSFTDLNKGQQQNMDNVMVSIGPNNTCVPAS

HT:N1-213 (Drosophila) = HT:N1-213 (Drosophila) (UniProt Q8SYK5); assay: SEC; gel filtration of HT:N1-213; column not stated; both purified
[6] = molecular target: T6, TRX-6xHis-CP190 [1-126] (Drosophila) (UniProt Q24478); assay: pull-down; 6xHis pull-down on Co-IDA resin in buffer A, washed with 30 mM imidazole; performed similarly to the MBP pull-down (co-expressed in BL21)
T6 sequence: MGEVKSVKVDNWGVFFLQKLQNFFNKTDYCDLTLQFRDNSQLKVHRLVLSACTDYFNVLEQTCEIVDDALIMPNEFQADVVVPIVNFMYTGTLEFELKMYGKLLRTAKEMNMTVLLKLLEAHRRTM

binding [1]: binds
binding [2]: binds
binding [3]: binds
binding [4]: binds
B1: full-length Insv (yeast two-hybrid fusion) (protein, UniProt Q8SYK5 1-376)
chain: MENQYQRIVSATAREDSQARRSKPLFLNAWSQTSSVDFEVLRSISAPDPQVEVENRALRDKVRYLEAKLQQHKDLLSQIHATSARMQQASSLLAESRPPTPPAVQSHHILTPPSSEICAPAQNPQILDYKIISAPDDADAIEIRLAAESLNSLSTSADSDRLEICLGDENHQQSNHHNSQQQYRISNGIKRDGSSESADTPLQFIKRRKLQEIQLQEEIPRQNIKLPAKPQVKARNGSFTDLNKGQQQNMDNVMVSIGPNNTCVPASVFENINWSVCSLATRKLLVTIFDRETLATHSMTGKPSPAFKDQDKPLKRMLDPGKIQDIIFAVTHKCNASEKEVRNAITTKCADENKMMKIQNVKRRSSGIKHEKENII

binding [5]: binds
B2: TRX-6xHis-CP190 [1-126] (domain or fragment, UniProt Q24478 1-126)
chain: MGEVKSVKVDNWGVFFLQKLQNFFNKTDYCDLTLQFRDNSQLKVHRLVLSACTDYFNVLEQTCEIVDDALIMPNEFQADVVVPIVNFMYTGTLEFELKMYGKLLRTAKEMNMTVLLKLLEAHRRTM

binding [1]: no binding
B3: Insv d50-79 (yeast two-hybrid fusion) (protein, UniProt Q8SYK5)
chain: MENQYQRIVSATAREDSQARRSKPLFLNAWSQTSSVDFEVLRSISAPDPHATSARMQQASSLLAESRPPTPPAVQSHHILTPPSSEICAPAQNPQILDYKIISAPDDADAIEIRLAAESLNSLSTSADSDRLEICLGDENHQQSNHHNSQQQYRISNGIKRDGSSESADTPLQFIKRRKLQEIQLQEEIPRQNIKLPAKPQVKARNGSFTDLNKGQQQNMDNVMVSIGPNNTCVPASVFENINWSVCSLATRKLLVTIFDRETLATHSMTGKPSPAFKDQDKPLKRMLDPGKIQDIIFAVTHKCNASEKEVRNAITTKCADENKMMKIQNVKRRSSGIKHEKENII

binding (HT:N1-213 (Drosophila)): binds
B4: HT:N1-213 (domain or fragment, Drosophila, UniProt Q8SYK5 1-213, looked up)
chain: MENQYQRIVSATAREDSQARRSKPLFLNAWSQTSSVDFEVLRSISAPDPQVEVENRALRDKVRYLEAKLQQHKDLLSQIHATSARMQQASSLLAESRPPTPPAVQSHHILTPPSSEICAPAQNPQILDYKIISAPDDADAIEIRLAAESLNSLSTSADSDRLEICLGDENHQQSNHHNSQQQYRISNGIKRDGSSESADTPLQFIKRRKLQEI
notes: source: E. coli, purified (Ni-NTA Agarose); not shown: His6, N-terminal, kept; Thioredoxin, N-terminal, kept

binding [1]: no binding
B5: His-Sumo C-BEN (HS:C-BEN) (domain or fragment, Drosophila, UniProt Q8SYK5 210-376, looked up)
chain: LQEIQLQEEIPRQNIKLPAKPQVKARNGSFTDLNKGQQQNMDNVMVSIGPNNTCVPASVFENINWSVCSLATRKLLVTIFDRETLATHSMTGKPSPAFKDQDKPLKRMLDPGKIQDIIFAVTHKCNASEKEVRNAITTKCADENKMMKIQNVKRRSSGIKHEKENII
notes: Insensitive (Insv), Drosophila; C domain plus BEN domain; 'lacks amino acids 1-209'; elsewhere the C domain is said to extend from aa 209 to aa 253; about 32 kDa with the tag; source: E. coli, purified (Ni-NTA Agarose); not shown: His6, N-terminal, kept; Sumo, N-terminal, kept

binding [6]: binds
B6: HT:N1-267 (domain or fragment, Drosophila, UniProt Q8SYK5 1-267, looked up)
chain: MENQYQRIVSATAREDSQARRSKPLFLNAWSQTSSVDFEVLRSISAPDPQVEVENRALRDKVRYLEAKLQQHKDLLSQIHATSARMQQASSLLAESRPPTPPAVQSHHILTPPSSEICAPAQNPQILDYKIISAPDDADAIEIRLAAESLNSLSTSADSDRLEICLGDENHQQSNHHNSQQQYRISNGIKRDGSSESADTPLQFIKRRKLQEIQLQEEIPRQNIKLPAKPQVKARNGSFTDLNKGQQQNMDNVMVSIGPNNTCVPAS
notes: as for B4
